From article PMC9911399, “Two distinct binding modes provide the RNA-binding protein RbFox with extraordinary sequence specificity”
Positions count from the first letter of the chain named. The list shows a part of the results.

T1: RBFOX1 RRM RbFoxmut (Fox-RRM*) (Homo sapiens, UniProt Q9NWB1 109-208, R118D;E147R;N151S;E152T)
T1 sequence: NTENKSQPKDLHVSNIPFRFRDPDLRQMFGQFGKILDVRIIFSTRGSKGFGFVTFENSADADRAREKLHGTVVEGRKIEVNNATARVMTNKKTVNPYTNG

B1: GCAAUUU (DNA:RNA)
RNA: GGGAGACCGGAAUUCAGAUUGUCCGCAAUUUUUAAAUCCCGUCGUAGCCACCA
DNA 1: CAATCTGAATTCCGGTCTCCC
DNA 2: TGGTGGCTACGACGGGATT
B2: AUAUUUA (DNA:RNA)
RNA: B1 RNA with G25A, C26U, A28U, U31A
DNA 1: CAATCTGAATTCCGGTCTCCC
DNA 2: TGGTGGCTACGACGGGATT
B3: CUAUUAU (DNA:RNA)
RNA: B1 RNA with G25C, C26U, A28U, U30A
DNA 1: CAATCTGAATTCCGGTCTCCC
DNA 2: TGGTGGCTACGACGGGATT
B4: GUUUAGU (DNA:RNA)
RNA: B1 RNA with C26U, A27U, A28U, U29A, U30G
DNA 1: CAATCTGAATTCCGGTCTCCC
DNA 2: TGGTGGCTACGACGGGATT
B5: GGAACGA (DNA:RNA)
RNA: B1 RNA with C26G, U29C, U30G, U31A
DNA 1: CAATCTGAATTCCGGTCTCCC
DNA 2: TGGTGGCTACGACGGGATT
B6: AGGGGGU (DNA:RNA)
RNA: B1 RNA with G25A, C26G, A27G, A28G, U29G, U30G
DNA 1: CAATCTGAATTCCGGTCTCCC
DNA 2: TGGTGGCTACGACGGGATT
B7: UAGUCCC (DNA:RNA)
RNA: GGGAGACCGGAAUUCAGAUUGUCCUAGUCCCUUAAAUCCCGUCGUAGCCACCA
DNA 1: CAATCTGAATTCCGGTCTCCC
DNA 2: TGGTGGCTACGACGGGATT
B8: UAUGCCU (DNA:RNA)
RNA: B7 RNA with G27U, U28G, C31U
DNA 1: CAATCTGAATTCCGGTCTCCC
DNA 2: TGGTGGCTACGACGGGATT
B9: AUACGCC (DNA:RNA)
RNA: B7 RNA with U25A, A26U, G27A, U28C, C29G
DNA 1: CAATCTGAATTCCGGTCTCCC
DNA 2: TGGTGGCTACGACGGGATT

What follows are binders tested against T1, RBFOX1 RRM RbFoxmut (Fox-RRM*) (assay: EMSA; HiTS-Eq, 1 nM pool, 10 min; buffer printed only for the single-RNA assays: 10 mM Tris pH 7.5, 150 mM NaCl, 3.4 mM EDTA, 0.001% NP-40, 30 C). Conditions: tags: His6 N-terminal (pET28a); label: 5' 32P.
Method in brief: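 Purified wild-type or mutant RbFox RRM at increasing concentrations was equilibrated with 1 nM of 5′-radiolabelled RNA carrying 7 randomized nucleotides for 10 min in 50 µL. Unbound RNA was separated by 8% native PAGE and sequenced. Relative association constants came from read-count changes of each RNA species compared with the control reaction, normalised to the cognate motif.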

| Binder | binding signal |
| --- | --- |
| B1 | 0.0577 KA relative to UGCAUGU |
| B2 | 0.153 KA relative to UGCAUGU |
| B3 | 0.119 KA relative to UGCAUGU |
| B4 | 0.154 KA relative to UGCAUGU |
| B5 | 0.286 KA relative to UGCAUGU |
| B6 | 0.13 KA relative to UGCAUGU |
| B7 | 0.0626 KA relative to UGCAUGU |
| B8 | 0.0911 KA relative to UGCAUGU |
| B9 | 0.0769 KA relative to UGCAUGU |
